# From PubChem BioAssay (NCI)
#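 Grown in 96-well plates, cells were treated for 48 hours with each compound at five concentrations. Insufficient inhibition: endpoint recorded as highest concentration tested. At the GI50, growth is halved.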 A number of entries come with more than one value. The other results are left out here. The source may hold further records. For some of these results: The tests behind the records often covered other concentration ranges, not given here; a value can be the end of its range. For some of these results: The values listed for one entry are repeated measurements (runs, samples, wells, individuals or studies). Brackets tell where a record comes from. Letters count within one entry.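 Definition used: TGI = concentration required for complete inhibition of growth.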
# Key:
# Test in all cases: NCI anticancer screen, dose series, 48 h
# CCRF-CEM leukemia = system: CCRF-CEM leukemia
# SF-295 CNS = system: SF-295 CNS
# COLO 205 colon = system: COLO 205 colon
# DLD-1 colon = system: DLD-1 colon
# NCI-H226 lung = system: NCI-H226 lung
# PC-3 prostate = system: PC-3 prostate
# ACHN renal = system: ACHN renal
# SF-539 CNS = system: SF-539 CNS
# SN12C renal = system: SN12C renal
# HCC-2998 colon = system: HCC-2998 colon
# NCI-H23 lung = system: NCI-H23 lung
# NCI-H522 lung = system: NCI-H522 lung
# UACC-62 melanoma = system: UACC-62 melanoma
# SK-MEL-2 melanoma = system: SK-MEL-2 melanoma
# HOP-62 NSCLC = system: HOP-62 NSCLC
# MOLT-4 leukemia = system: MOLT-4 leukemia
# HL-60(TB) leukemia = system: HL-60(TB) leukemia
# HS 578T breast = system: HS 578T breast
# M14 melanoma = system: M14 melanoma
# UACC-257 melanoma = system: UACC-257 melanoma
# SNB-75 CNS = system: SNB-75 CNS
# RXF 393 renal = system: RXF 393 renal
# U251 CNS = system: U251 CNS
# SF-268 CNS = system: SF-268 CNS
# MDA-MB-435 = system: MDA-MB-435
# OVCAR-3 ovarian = system: OVCAR-3 ovarian
# K-562 leukemia = system: K-562 leukemia
# DU-145 prostate = system: DU-145 prostate
# SW-620 colon = system: SW-620 colon
# MALME-3M melanoma = system: MALME-3M melanoma
# SR leukemia = system: SR leukemia
# NCI/ADR-RES ovarian = system: NCI/ADR-RES ovarian
# SK-MEL-28 melanoma = system: SK-MEL-28 melanoma
# HCT-15 colon = system: HCT-15 colon
# SK-MEL-5 melanoma = system: SK-MEL-5 melanoma
compound,measurement,setting,value
COc1cc([C@@H]2c3cc4c(cc3[C@@H](OC3OC5COC(C)OC5C(O)C3O)[C@H]3COC(=O)[C@H]23)OCO4)cc(OC)c1O (stereo partly specified),TGI,CCRF-CEM leukemia,500 µM and 47.8 µM
same,TGI,SF-295 CNS,"> 85.1 µM, 60.9 µM, 32.5 µM, 47.7 µM"
same,TGI,COLO 205 colon,"> 90.2 µM, 103 µM, 260 µM, 151 µM"
same,TGI,DLD-1 colon,17.1 µM and 278 µM
same,TGI,NCI-H226 lung,"61.5, 17.2, 35.8, 23.2 µM"
same,TGI,PC-3 prostate,500 µM and 3.66 µM
same,TGI,ACHN renal,50.5 µM [1 test] and 6.36 µM [mean of 6 tests] and > 81.8 µM [mean of 7 tests]
same,TGI,SF-539 CNS,"62.1, 7.03, 10.3, 16.9 µM"
same,TGI,SN12C renal,"57.2, 37, 18, 45.1 µM"
same,TGI,HCC-2998 colon,"59.5, 12.3, 14.2, 31 µM"
same,TGI,NCI-H23 lung,"> 81.4 µM, 10.7 µM, 30.6 µM, 43 µM"
same,TGI,NCI-H522 lung,"71.9, 18.6, 187, 35.5 µM"
same,TGI,UACC-62 melanoma,"> 97.2 µM, 17.6 µM, 19.6 µM, 57.1 µM"
same,TGI,SK-MEL-2 melanoma,"76.8, 18.5, 259, 70.4 µM"
same,TGI,HOP-62 NSCLC,"65.2, 3.85, 16.4, 12.2 µM"
same,TGI,MOLT-4 leukemia,"66, 1.5, 13.1, 17.7 µM"
same,TGI,HL-60(TB) leukemia,"18.2, 4.24, 2.68, 13.3 µM"
same,TGI,HS 578T breast,"65.1 µM, 40.1 µM, 3.02 µM"
same,TGI,M14 melanoma,132 µM [1 test] and 6.33 µM [mean of 5 tests] and > 97.5 µM [mean of 6 tests]
same,TGI,UACC-257 melanoma,"33.2 µM, 500 µM, 234 µM"
same,TGI,SNB-75 CNS,"> 77.4 µM, 9.95 µM, 12.3 µM, 93.3 µM"
same,TGI,RXF 393 renal,"67.1, 29.7, 10.8, 79.3 µM"
same,TGI,U251 CNS,"> 72.6 µM, 111 µM, 500 µM, 29.2 µM"
same,TGI,SF-268 CNS,"> 93.6 µM, 22.1 µM, 28.7 µM, 169 µM"
same,GI50,MDA-MB-435,335 nM [1 test] and 14.2 µM [mean of 2 tests]
same,TGI,OVCAR-3 ovarian,"> 94.7 µM, 39.2 µM, 61.1 µM, 145 µM"
same,TGI,K-562 leukemia,"24.5 µM, 500 µM [1 test] and 292 µM [mean of 31 tests]"
same,TGI,DU-145 prostate,"23.3 µM, 500 µM, 3.83 µM"
COc1cc2c3c(c4cc(OC)c(OC)cc4c2cc1OC)CN1CCC[C@H]1C3,TGI,SW-620 colon,"4.43 µM [sample A, 1 test] and > 100 µM [sample B, mean of 2 tests]"
same,TGI,SF-295 CNS,"1.4 µM [sample A, 1 test] and 76 nM [sample B, mean of 2 tests]"
same,TGI,COLO 205 colon,"543 nM [sample A, 1 test] and 36.7 nM [sample B, mean of 2 tests]"
same,GI50,PC-3 prostate,"259 nM [sample A, 1 test] and 12.6 nM [sample B, 1 test]"
same,TGI,PC-3 prostate,"> 10 µM [sample A, 1 test] and 166 nM [sample B, 1 test]"
same,GI50,MALME-3M melanoma,"19.8 nM [sample A, 1 test] and 364 nM [sample B, mean of 2 tests]"
same,TGI,MALME-3M melanoma,"92.8 nM [sample A, 1 test] and 2.68 µM [sample B, mean of 2 tests]"
same,TGI,SR leukemia,"3.12 µM [sample A, 1 test] and 47.5 µM [sample B, mean of 2 tests]"
same,GI50,UACC-62 melanoma,"164 nM [sample A, 1 test] and < 16 nM [sample B, mean of 2 tests]"
same,TGI,UACC-62 melanoma,"> 10 µM [sample A, 1 test] and 481 nM [sample B, mean of 2 tests]"
same,TGI,SK-MEL-2 melanoma,"599 nM [sample A, 1 test] and < 30.7 nM [sample B, mean of 2 tests]"
same,TGI,HL-60(TB) leukemia,"> 10 µM [sample A, 1 test] and 600 nM [sample B, mean of 2 tests]"
same,TGI,NCI/ADR-RES ovarian,"4.13 µM [sample A, 1 test] and > 100 µM [sample B, 1 test]"
same,TGI,SK-MEL-28 melanoma,78.5 nM [sample A] and 6.08 µM [sample B]
same,TGI,HCT-15 colon,"2.22 µM [sample A, 1 test] and > 100 µM [sample B, 1 test]"
same,TGI,SF-268 CNS,"231 nM [sample A, 1 test] and 7.83 µM [sample B, mean of 2 tests]"
same,TGI,SK-MEL-5 melanoma,"1.52 µM [sample A, 1 test] and 113 nM [sample B, mean of 2 tests]"
same,GI50,K-562 leukemia,"377 nM [sample A, 1 test] and < 10 nM [sample B, mean of 2 tests]"
